Laboratory results taken from the supplement of paper PMC3334620.
In all, about 33,000 sequences were measured (“E-score (-0.5 to 0.5)”: median about -0.056, highest 2% from about 0.38 on). The list shows a part of the results.

Target: Stb4 (UniProt P50104)
Assay: PBM E-score (8-mer binding enrichment) (E-score (-0.5 to 0.5)); higher = stronger / more preferred TF binding; most listed sequences are background and not binding sites
Conditions: protein concentration: 200 nM; construct: GST-DNA-binding domain
In short: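 E-scores (a modified Wilcoxon-Mann-Whitney statistic) were assigned by the Universal PBM Analysis Suite to every ungapped eight-base word pooled with its reverse complement. The input came from universal all-10-mer Agilent arrays made double-stranded by primer extension and probed with GST-tagged yeast transcription factors at about 100-200 nM. Fluorescent anti-GST detected bound protein, and masliner normalised the scans.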

Sequence | PBM E-score
AGCGGTCC | 0.123
AATGCCTG | -0.13
AACAAGAG | -0.186
CATGCCAC | -0.227
AAAATTAA | -0.0798
CTTTCACA | 0.00538
GCGGCCTA | -0.246
CGACATCA | 0.0251
AGCGGCGC | -0.0593
AGATAGTA | 0.0295
GGGAGCCA | -0.0391
GAAGGGTC | -0.137
GCCCTTAA | -0.0147
CCCGACGG | 0.373
ATAAGTTC | 0.26
CATCACAA | -0.208
TATCGCCA | -0.237
ACAAGTCT | -0.13
TATCGACA | 0.0105
CACTCGTC | 0.0228
AGACATAT | -0.141
GTGATCCA | -0.106
GAACTACA | 0.156
AAAGCCGG | 0.289
GCTTCTCA | -0.0393

Sequence | PBM E-score
CCGGTAGG | 0.153
AGTCTTTC | 0.117
CCTCGGGA | 0.444
AACTACTC | -0.0924
CACTCGGC | 0.402
AACTTTAC | 0.0543
ATGCACCA | -0.225
AAGCGAAT | -0.121
GTACCACA | -0.00599
CGGGCAAC | 0.0682
CATAATAG | -0.0375
CCATATCA | -0.12
CGACCCGC | 0.173
AGCTTCAT | 0.122
ACGCCTGG | -0.154
GTTTTTTA | 0.0336
TAATTGAA | -0.0515
AATCCCAT | -0.121
GATCCCGC | 0.225
CGAGATCG | 0.222
CCAGCGCC | -0.0109
AGACGAAA | 0.112
AAGATGCA | -0.248
CCGAGTCC | 0.403
CGCGTCCA | -0.0145

Sequence | PBM E-score
GGATACCC | 0.257
CGCCTTTC | -0.0815
ATAAATGA | -0.0962
AGTCATAA | 0.0377
CTGGGAAA | -0.168
CAGAGCTG | -0.307
AATCAGAC | 0.002
AGATGACA | -0.217
TCATCTAA | 0.0409
GGAGAAAA | 0.0906
CCACAACG | 0.00766
TATCCGGA | 0.46
CCGGGGCG | 0.325
CAATCGTG | -0.055
CATCCACG | -0.00517
ATTCTTTA | -0.206
GCCATGCA | -0.0827
GCCGTAAA | 0.177
GGTAGTAA | 0.053
AAGGTCGA | -0.155
GGTCGAAC | -0.0406
GCGCGCTA | -0.0794
GTATCTCA | -0.0552
AGATTGCG | 0.0633
CACCGTCA | -0.13

Sequence | PBM E-score
CTTATAAA | 0.0246
CGCAAACA | -0.119
CAGTGGCC | -0.0336
CCCCTTGC | -0.225
CTCCTGTA | -0.0985
CAAATAGC | -0.0963
ACGACCGC | 0.0551
ATGGCTGC | -0.211
GTCTAGTA | -0.11
ACTAGTTA | -0.25
ACGGAACG | 0.327
CCTAATAC | -0.0369
TCAGAAGA | -0.217
AGTTACTC | 0.0536
ATATTTTG | 0.0515
ACTGTGTA | -0.141
ACGCTATA | -0.0219
AAATTGAC | -0.00865
CCTTTTAG | -0.264
ATATATAA | 0.0369
ATGTCTCA | -0.214
CCCGTATA | 0.136
TTCCCGAA | 0.46
TCCTACGA | -0.157
AGTGGGGA | -0.168

Sequence | PBM E-score
AAGCTCTC | 0.091
CCGAATAG | 0.37
ACCTAGGC | -0.0147
CATCAGTC | -0.0805
ACGTGGAT | -0.0782
ACGCAGTG | -0.077
ACCCCAAC | -0.189
ACTCTGCT | 0.051
CCACACTC | -0.083
ATGCGAGC | -0.123
ATACAAAA | -0.107
ACACTTTC | 0.144
GCACGTAC | -0.00875
CTCTAAGC | 0.0612
GCTGTGTA | -0.172
ACAAAGAC | 0.0337
CATAGGGA | -0.208
CCCCCTCA | -0.334
ACAATATA | 0.167
CTATGCAA | -0.205
CTCCAGTA | -0.0933
CGCTCCTC | -0.166
TAACCAGA | -0.0403
ACTGCCAT | -0.221
ATGTACAA | -0.0734

Sequence | PBM E-score
ACGGTACC | 0.28
ACATTATC | 0.115
CTAGGCAG | -0.169
AATTCCTA | -0.269
GAGTCACA | -0.116
ACATGGAA | 0.0488
ACACCGGT | 0.109
CCACAACA | -0.257
CGACCAGC | 0.115
AGTCATAC | -0.0938
ACCCTACG | -0.0606
ACCGGGAT | 0.321
CGTTCCGA | 0.451
GCACATCC | 0.162
ATCCTCTC | -0.212
GGGAGGCA | -0.00345
GTCGCAAA | -0.0522
CGTACCCC | 0.0659
ACAAAGAT | -0.16
AGGCTGTA | -0.108
AACCTTTG | -0.0665
GGTTAACC | 0.125
AAGCGTCA | -0.291
GGCCGCCC | -0.0496
CGATTCCA | 0.0252

Sequence | PBM E-score
AACATTCC | 0.187
CGAGGTTC | 0.234
AGGTTACC | 0.209
ATGAAACC | -0.0214
AGTCCCAA | -0.0575
CGGAGTTC | 0.283
AATTGTGA | -0.134
CCATAACA | -0.0542
AGTCTTAA | -0.25
ATTGGGTC | -0.0344
GTTGAGTA | -0.0078
CTAGCTAA | -0.117
ACCGCTCG | 0.13
ATTTCTAA | 0.0106
CCCAGAAC | -0.216
AGCGCGAC | -0.151
AATCCTAC | -0.0751
ATTCGGCA | 0.438
CATCAAGC | -0.12
AGTCCAGC | -0.158
ATGAGCTA | -0.119
AAGCTGTG | -0.129
GGGATTTA | 0.202
GTTAAATA | 0.0514
ACCATCAT | -0.0709

Sequence | PBM E-score
GAACGGCA | 0.213
CAGCACGA | -0.156
CACGTAAC | -0.12
GCCGCTAC | 0.117
AGTATGTG | 0.0678
TGTGAGAA | 0.0211
ACGGGATC | 0.227
TCCACCCA | -0.304
GAGAGTCA | -0.233
ATCAGCTC | -0.0462
ATGTAGTA | -0.0564
GCACTGAA | -0.0543
TAAGTCTA | -0.197
CTAACCCA | -0.157
CTTTAGGA | -0.249
TGTTGAAA | 0.00091
CGGCCCCC | 0.0071
CACGCGAA | -0.163
AATCTGCA | -0.0706
CACAAGTG | -0.237
ATGATCGG | 0.32
ACGGTTAA | 0.175
GTGTATGA | -0.184
ATTTATGA | 0.116
ATCCTTTA | -0.118

Sequence | PBM E-score
AGAGGTAT | -0.114
TCTTTGAA | -0.15
CACTATCA | -0.0958
GAACAAAA | 0.117
AACCAAAA | 0.0853
CAGTTCAA | -0.0612
ACCCAGGA | -0.104
ATTTCTAG | 0.0233
CCCACATA | -0.162
CCAGCACA | -0.124
CGCTCCGC | 0.0183
TAGGCTAA | -0.161
GTAGTGAA | -0.0707
TCGTATCA | -0.0551
GAGCGCAA | -0.169
GCGGGTTA | 0.154
CCGCGAGA | 0.00202
CGAGTCAC | 0.0132
CGTTTGAC | 0.0315
